# Data taken from PMC7819943, “Rice protein-binding microarrays: a tool to detect cis-acting elements near promoter regions in rice”.
# This is one part of the list.
# Target: T1, OsWOX13 (Oryza sativa, UniProt Q5QMM3 1-267)
# T1 sequence: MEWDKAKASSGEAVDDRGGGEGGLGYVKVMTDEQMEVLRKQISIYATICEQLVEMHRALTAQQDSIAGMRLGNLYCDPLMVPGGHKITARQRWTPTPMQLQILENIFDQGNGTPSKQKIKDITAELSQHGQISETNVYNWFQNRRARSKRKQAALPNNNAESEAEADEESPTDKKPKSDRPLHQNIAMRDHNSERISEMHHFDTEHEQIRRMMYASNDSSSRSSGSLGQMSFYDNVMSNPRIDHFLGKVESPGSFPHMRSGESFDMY
# Assay: protein-binding microarray (RPBM); PBS, 2% BSA, 51.3 ng/ul salmon testes DNA, 50 uM zinc acetate, 200 nM TF, 25 C, 1 h; high values mean tight binding
# Settings: protein: recombinant; tags: N-terminal polyhistidine and DsRed monomer fusion (pET32a); label: CyDye5-dUTP incorporated in the synthesized complementary strand; 3' TTTTT single-stranded linker to array surface; dsDNA, one strand shown
# How it was run: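 For the binding signal, per-feature fluorescence intensity was read in arbitrary units on an Axon 4000B scanner. Before scanning, a 2% BSA-blocked custom Agilent array made double-stranded with Cy5-dUTP was washed after 1 h at 25 °C with 200 nM protein and 50 µM zinc acetate. The proteins were Ni–NTA-purified transcription factors with N-terminal polyhistidine and DsRed fusions, expressed in E. coli BL21-CodonPlus.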
row,Sequence,binding signal
1,TTCAAAATTATAATGTAATTACATACAAATCACATGAAGGCGGAGTCACCTAGTGCAG,26900 fluorescence intensity (a.u.)
2,TAGAATGGAAATTAATCAGAATATCTGCAGAAGGCAAGGGCGGAGTCACCTAGTGCAG,9660 fluorescence intensity (a.u.)
3,TTAATCGACTAATCAATTCCTCGGATGCCACCTCTCTCTGCGGAGTCACCTAGTGCAG,6460 fluorescence intensity (a.u.)
4,CAACTGATTTTATCACGTTCTAAAATATGCCATCATCTTTCGGAGTCACCTAGTGCAG,12300 fluorescence intensity (a.u.)
5,CCTAATGATTTCTCAAGCACAGAGATGAACCATCTTCCATCGGAGTCACCTAGTGCAG,12500 fluorescence intensity (a.u.)
6,GGCGGCGGCGGAGGAGGAGGAGGGGAGGGGAGCACGAGCGCGGAGTCACCTAGTGCAG,10700 fluorescence intensity (a.u.)
7,ATTTCCAATCAATCCAAGAGGCTAGAGCTAGCGGCCAAGACGGAGTCACCTAGTGCAG,12800 fluorescence intensity (a.u.)
8,TTGACACATATATGGATCAATCAAGCTAACTCTCTCTAAACGGAGTCACCTAGTGCAG,11100 fluorescence intensity (a.u.)
9,ATGCCGTTTGAGATTGACGAGGTTAAATGACGAGGGCGGCCGGAGTCACCTAGTGCAG,22800 fluorescence intensity (a.u.)
10,AATTAATTAATGCTTCTCTTCTACACTGATGCTGCAGGTTCGGAGTCACCTAGTGCAG,45100 fluorescence intensity (a.u.)
11,TAAAGTGTACTCCAATCAAGTACTACTCCTCCACATCAACCGGAGTCACCTAGTGCAG,4570 fluorescence intensity (a.u.)
12,TAATTGATTAATTAAAATAGTTTATTTGTGGGCATGTAAACGGAGTCACCTAGTGCAG,22700 fluorescence intensity (a.u.)
13,GATGACTGACTTTGTTCAAGCAAACGGTCACTTTTGATCCCGGAGTCACCTAGTGCAG,15000 fluorescence intensity (a.u.)
14,TTTTATATTAATATAAATGTGATGAGCTTTTATTGAGAAGCGGAGTCACCTAGTGCAG,8350 fluorescence intensity (a.u.)
15,GATACAATAATTACTCCGTATTACTCTCTCTCCCTGCTTACGGAGTCACCTAGTGCAG,4910 fluorescence intensity (a.u.)
16,CATCAATCAATCAAGATCTCTCTTGACCATCTAGATACATCGGAGTCACCTAGTGCAG,51400 fluorescence intensity (a.u.)
17,CGTACCAATTTCAATCCAAATTTCCAACTTTGAAAGAAACCGGAGTCACCTAGTGCAG,4780 fluorescence intensity (a.u.)
18,GTTATTGAGGATGATTAAAACCGTTTGGTGCCCTGTCATACGGAGTCACCTAGTGCAG,5470 fluorescence intensity (a.u.)
19,TATCATTAAATTTATGTGGCTTAACTTTTCTATCATTTAACGGAGTCACCTAGTGCAG,7390 fluorescence intensity (a.u.)
20,TTTTAACACAGTTTAACTGAATTTGACTAAATTCACAATACGGAGTCACCTAGTGCAG,6160 fluorescence intensity (a.u.)
21,TCTTTATGATTGCTGCCAACTAATGTTTTCTTTCATACTACGGAGTCACCTAGTGCAG,17600 fluorescence intensity (a.u.)

row,Sequence,binding signal
1,GCATTTGGTTGTGATTTTGGGAATTGATTCCCTTGTATCCCGGAGTCACCTAGTGCAG,3630 fluorescence intensity (a.u.)
2,AATTAATCATATGTTAATTTATTGTTCCGTTGCATGCCGGCGGAGTCACCTAGTGCAG,38800 fluorescence intensity (a.u.)
3,GCCGGTGATTGGCGTGGCGTGGCGTGGCGTGGCGCGGTGTCGGAGTCACCTAGTGCAG,52600 fluorescence intensity (a.u.)
4,AGGCTGATGAAAGGGGATTGCCAGCAGATTGCAATGCAGACGGAGTCACCTAGTGCAG,16900 fluorescence intensity (a.u.)
5,TTTACAAGATTGGCAAGTCTGGTCAGGAGTCTCATGCGGCCGGAGTCACCTAGTGCAG,31900 fluorescence intensity (a.u.)
6,ATTTACTAATGATAGATTAATTAGGCCTAATAGATTCGACCGGAGTCACCTAGTGCAG,29200 fluorescence intensity (a.u.)
7,ATAACTAATGGATGAAATTTTCTATCATCTCAAAGCTGATCGGAGTCACCTAGTGCAG,17500 fluorescence intensity (a.u.)
8,GAGCAAATTTAATAGTATAGCCCACTACTAACTCCAAATCCGGAGTCACCTAGTGCAG,3860 fluorescence intensity (a.u.)
9,AGTAAATTAAACCTGCATATATATGAACGCTCACAAGTCACGGAGTCACCTAGTGCAG,7360 fluorescence intensity (a.u.)
10,ACTAAATTAAATGGTTGGACTCCTCATGTTGAAGATATACCGGAGTCACCTAGTGCAG,13800 fluorescence intensity (a.u.)
11,GCAATAATTAATAAGGCTCTAGGATAATTCAAATGGTTTTCGGAGTCACCTAGTGCAG,9520 fluorescence intensity (a.u.)
12,TTCAGTCAATTTATAGTTGGTTGTTGAGAGGATTTAGAATCGGAGTCACCTAGTGCAG,3200 fluorescence intensity (a.u.)
13,TTTGCGAACGTAATTCCATTAATTAAACACACGTCTATATCGGAGTCACCTAGTGCAG,3570 fluorescence intensity (a.u.)
14,GCCACATTTAACGTGTGATTAATTAAATATTAGCTATTTTCGGAGTCACCTAGTGCAG,12500 fluorescence intensity (a.u.)
15,AGGATGATTAACAGCCAATTAATTGATAAAATCAATTATGCGGAGTCACCTAGTGCAG,28000 fluorescence intensity (a.u.)
16,CCTTTGACTGAATTTGATCAAGCATTAGATGCTGAAAGTTCGGAGTCACCTAGTGCAG,31100 fluorescence intensity (a.u.)
17,GTTAATTAGTTATAGTTTGCGAAAGAACATGTATTAACCTCGGAGTCACCTAGTGCAG,28300 fluorescence intensity (a.u.)
18,GTGTAGCATTTGATTGTTAAACAGCAAAATAACCCATGCACGGAGTCACCTAGTGCAG,11600 fluorescence intensity (a.u.)
19,GGTAGAATTAAATAGGAATAATTTTCGATCGGTTTTCGATCGGAGTCACCTAGTGCAG,6170 fluorescence intensity (a.u.)
20,GGTAATAATTTGTTTAGCTCCTGGTTTGGAATGGTATATTCGGAGTCACCTAGTGCAG,7090 fluorescence intensity (a.u.)
21,AATCGCATTTCCAATCACAGCATCATTATTAAGGACAAGGCGGAGTCACCTAGTGCAG,16700 fluorescence intensity (a.u.)
